# Measured values taken from the supplement of paper PMC8728848.
# The list shows a part of the results.
# Columns and labels:
# Assay in all cases: glycan array binding signal (z-score within array); higher = stronger binding
# Settings in all cases: glycan notation: IUPAC condensed, linker removed
# [1] = target: Gal(a1-3)[Gal(a1-4)]Gal(b1-4)GlcNAc
# In short: (§1)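 The Consortium for Functional Glycomics database supplied 3228 glycan arrays, of which those lacking an available protein sequence were dropped. The binding signal, a within-array Z-score, was averaged across arrays of the same protein sequence and across linkers. Negative scores can be read as non-binding.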
# [2] = target: Gal(a1-4)Gal(b1-3)GlcNAc(b1-2)Man(a1-3)[Gal(a1-4)Gal(b1-3)GlcNAc(b1-2)Man(a1-6)]Man(b1-4)GlcNAc(b1-4)GlcNAc
# In short: as §1
# [3] = target: Gal(a1-4)Gal(b1-4)Glc
# In short: as §1
# [4] = target: Gal(a1-4)Gal(b1-4)GlcNAc
# In short: as §1
# [5] = target: Gal(a1-4)Gal(b1-4)GlcNAc(b1-2)Man(a1-3)[Gal(a1-4)Gal(b1-4)GlcNAc(b1-2)Man(a1-6)]Man(b1-4)GlcNAc(b1-4)GlcNAc
# In short: as §1
# [6] = target: Gal(a1-4)Gal(b1-4)GlcNAc(b1-3)Gal(b1-4)Glc
# In short: as §1
# [7] = target: Gal(a1-4)GlcNAc
# In short: as §1
# [8] = target: Gal(a1-6)Glc
# In short: as §1
# [9] = target: Gal(b1-2)Gal
# In short: as §1
# [10] = target: Gal(b1-3)Gal
# In short: as §1
# [11] = target: Gal(b1-3)Gal(b1-4)GlcNAc
# In short: as §1
# [12] = target: Gal(b1-3)GalNAc
# In short: as §1
# [13] = target: Gal(b1-3)GalNAc(a1-3)[Fuc(a1-2)]Gal(b1-4)Glc
# In short: as §1
# [14] = target: Gal(b1-3)GalNAc(a1-3)[Fuc(a1-2)]Gal(b1-4)GlcNAc
# In short: as §1
# [15] = target: Gal(b1-3)GalNAc(b1-3)Gal
# In short: as §1
# [16] = target: Gal(b1-3)GalNAc(b1-3)Gal(a1-4)Gal(b1-4)Glc
# In short: as §1
# [17] = target: Gal(b1-3)GalNAc(b1-4)Gal(b1-4)Glc
# In short: as §1
# [18] = target: Gal(b1-3)GalNAc(b1-4)[Neu5Ac(a2-3)]Gal(b1-4)Glc
# In short: as §1
# [19] = target: Gal(b1-3)GlcNAc
# In short: as §1
# [20] = target: Gal(b1-3)GlcNAc(a1-3)Gal(b1-4)GlcNAc
# In short: as §1
# [21] = target: Gal(b1-3)GlcNAc(a1-6)Gal(b1-4)GlcNAc
# In short: as §1
# [22] = target: Gal(b1-3)GlcNAc(b1-2)Man
# In short: as §1
# [23] = target: Gal(b1-3)GlcNAc(b1-2)Man(a1-3)[Gal(b1-3)GlcNAc(b1-2)Man(a1-6)]Man(b1-4)GlcNAc(b1-4)GlcNAc
# In short: as §1
# [24] = target: Gal(b1-3)GlcNAc(b1-2)Man(a1-3)[Gal(b1-3)GlcNAc(b1-2)Man(a1-6)]Man(b1-4)GlcNAc(b1-4)[Fuc(a1-6)]GlcNAc
# In short: as §1
# [25] = target: Gal(b1-3)GlcNAc(b1-2)Man(a1-3)[GlcNAc(b1-4)][Gal(b1-3)GlcNAc(b1-2)Man(a1-6)]Man(b1-4)GlcNAc(b1-4)GlcNAc
# In short: as §1
# [26] = target: Gal(b1-3)GlcNAc(b1-2)[Gal(b1-3)GlcNAc(b1-6)]Man(a1-6)[Gal(b1-3)GlcNAc(b1-2)Man(a1-3)]Man(b1-4)GlcNAc(b1-4)GlcNAc
# In short: as §1
# [27] = target: Gal(b1-3)GlcNAc(b1-3)Gal(b1-3)GlcNAc
# In short: as §1
# [28] = target: Gal(b1-3)GlcNAc(b1-3)Gal(b1-4)Glc
# In short: as §1
# [29] = target: Gal(b1-3)GlcNAc(b1-3)Gal(b1-4)GlcNAc
# In short: as §1
# [30] = target: Gal(b1-3)GlcNAc(b1-3)Gal(b1-4)GlcNAc(b1-2)Man(a1-3)[Gal(b1-3)GlcNAc(b1-3)Gal(b1-4)GlcNAc(b1-2)Man(a1-6)]Man(b1-4)GlcNAc(b1-4)GlcNAc
# In short: as §1
# [31] = target: Gal(b1-3)GlcNAc(b1-3)Gal(b1-4)GlcNAc(b1-2)[Gal(b1-3)GlcNAc(b1-3)Gal(b1-4)GlcNAc(b1-6)]Man(a1-6)[Gal(b1-3)GlcNAc(b1-3)Gal(b1-4)GlcNAc(b1-2)Man(a1-3)]Man(b1-4)GlcNAc(b1-4)[Fuc(a1-6)]GlcNAc
# In short: as §1
# [32] = target: Gal(b1-3)GlcNAc(b1-3)Gal(b1-4)GlcNAc(b1-3)Gal(b1-4)GlcNAc(b1-2)[Gal(b1-3)GlcNAc(b1-3)Gal(b1-4)GlcNAc(b1-3)Gal(b1-4)GlcNAc(b1-6)]Man(a1-6)[Gal(b1-3)GlcNAc(b1-3)Gal(b1-4)GlcNAc(b1-3)Gal(b1-4)GlcNAc(b1-2)Man(a1-3)]Man(b1-4)GlcNAc(b1-4)[Fuc(a1-6)]GlcNAc
# In short: as §1
# [33] = target: Gal(b1-3)GlcNAc(b1-3)Gal(b1-4)GlcNAc(b1-6)[Gal(b1-3)GlcNAc(b1-3)]Gal(b1-4)Glc
# In short: as §1
# [34] = target: Gal(b1-3)GlcNAc(b1-3)Gal(b1-4)[Fuc(a1-3)]GlcNAc
# In short: as §1
# [35] = target: Gal(b1-3)GlcNAc(b1-3)Gal(b1-4)[Fuc(a1-3)]GlcNAc(b1-6)[Gal(b1-3)GlcNAc(b1-3)]Gal(b1-4)Glc
# In short: as §1
# [36] = target: Gal(b1-3)GlcNAc(b1-3)GalNAc
# In short: as §1
# [37] = target: Gal(b1-3)GlcNAc(b1-6)Gal(b1-4)GlcNAc
# In short: as §1
# [38] = target: Gal(b1-3)GlcNAc(b1-6)GalNAc
# In short: as §1
binder,measurement,setting,value
PX15618B-bfa-464-25-464 (Bacteroides fragilis) (protein) DQEPPLYVNENDIFTSPTRIEATLNGLYAAIKNTGTKSLMGGKSYLVFDNRGDDVINISNNLVTLFNTYNMNVGITDAENADTWTYAYLAINKVNTFLQSLEGAREVAGENYDRYVQEAKFVRALAYYYLNNLYPTPYSVNPDAKSVPLRLTAEAGTENNNMPRSTVKQIYEHILSDLENISALDTEVNTYTGVTHATQAAANMLKMRVYMAMNEWDKAITAGELVTGYSLPEDVTLIYKAPYFSQESIFSLPMADTNIPNTQQSLAEYYYDGKIMLIDTKSGIMSKPDYSLATDKRIIAFKGEKDLLMKFTDAKTKLQWVPIFRYAETLLDLAECYANKAGGEATAKSLLKQVRGRSVDAATDPLNIDNLSGDALKEAIYNEKRLEFIGEGIRGIDIMRRGEHFIKVGENETINVGPSDEKYTWPIPQVELLLNKDINK,glycan array binding signal (z-score),[1],0.76
same,glycan array binding signal (z-score),[2],-0.128
same,glycan array binding signal (z-score),[3],0.822
same,glycan array binding signal (z-score),[4],-0.055
same,glycan array binding signal (z-score),[5],-0.514
same,glycan array binding signal (z-score),[6],-0.294
same,glycan array binding signal (z-score),[7],-0.489
same,glycan array binding signal (z-score),[8],0.06
same,glycan array binding signal (z-score),[9],-0.364
same,glycan array binding signal (z-score),[10],0.33
same,glycan array binding signal (z-score),[11],-0.449
same,glycan array binding signal (z-score),[12],-0.232
same,glycan array binding signal (z-score),[13],-0.611
same,glycan array binding signal (z-score),[14],-0.763
same,glycan array binding signal (z-score),[15],0.228
same,glycan array binding signal (z-score),[16],0.339
same,glycan array binding signal (z-score),[17],0.013
same,glycan array binding signal (z-score),[18],-0.288
same,glycan array binding signal (z-score),[19],1.37
same,glycan array binding signal (z-score),[20],-0.392
same,glycan array binding signal (z-score),[21],0.115
same,glycan array binding signal (z-score),[22],0.431
same,glycan array binding signal (z-score),[23],-0.247
same,glycan array binding signal (z-score),[24],0.341
same,glycan array binding signal (z-score),[25],0.456
same,glycan array binding signal (z-score),[26],0.104
same,glycan array binding signal (z-score),[27],0.182
same,glycan array binding signal (z-score),[28],-0.07
same,glycan array binding signal (z-score),[29],-0.377
same,glycan array binding signal (z-score),[30],-0.678
same,glycan array binding signal (z-score),[31],0.521
same,glycan array binding signal (z-score),[32],1.04
same,glycan array binding signal (z-score),[33],-0.005
same,glycan array binding signal (z-score),[34],-0.274
same,glycan array binding signal (z-score),[35],0.349
same,glycan array binding signal (z-score),[36],-0.304
same,glycan array binding signal (z-score),[37],-0.205
same,glycan array binding signal (z-score),[38],0.639
